Laboratory results as given in the supplement of paper PMC10369915.
The other results are listed elsewhere or left out. Rule as the data show it: active = 3.2 or more and inactive = the rest. The signal is at background level for most entries.

target: SHP2 C-SH2 domain E139D; experiment: enrichment score (SH2-bound / input frequency) (ratio); bacterial display of known human phosphotyrosine sites (pTyr-Var adds point mutants) read by sequencing; higher = stronger binding; tyrosines were phosphorylated by kinases first; details: peptide library: pTyr-Var
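Also: displayed peptides selected on beads carrying the immobilized SH2 domain, with library peptides lacking any tyrosine serving as negative controls.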

Binder	enrichment score
FLQEIYNSNNQ [FGG_Y140_YF]	inactive: 1.36
DSSIRYLQEIF [FGG_Y135_YF]	inactive: 0.69
VEDQFYRVDCF [FHL1_Y208_C209R_YF]	inactive: 0.855
VEDQYYRVDCY [FHL1_Y208_C209R]	inactive: 0.899
PEADKYCLTFA [FGG_Y300_R301C_YF]	inactive: 0.664
AVEDQYYRVDC [FHL1_Y207_C209R]	inactive: 0.862
AVEDQYYCVDC [FHL1_Y207]	inactive: 1.5
KGEDFYYVTCH [FHL1_Y149_C150Y]	inactive: 0.702
KGEDFYCVTCH [FHL1_Y149]	inactive: 2.91
PEADKYCLTYA [FGG_Y300_R301C]	inactive: 0.993
DSSIRYLQEIH [FGG_Y135_Y140H]	inactive: 0.878
HSVLQYVGGVM [FGGY_Y136]	inactive: 0.903
FLQEIHNSNNQ [FGG_Y140_Y140H_YF]	inactive: 1.12
DQNVEYKGTVW [FHL1_Y117]	inactive: 0.726
YQGGTYSKACT [FGG_Y380_S384C]	inactive: 0.6
YLQEIYNSNNQ [FGG_Y140]	inactive: 0.913
DSSIRYLQEIY [FGG_Y135]	inactive: 0.792
VEDQFYCVDCF [FHL1_Y208_YF]	active: 5.63
FQGGTYSKAST [FGG_Y380_YF]	inactive: 0.604

target: SHP2 C-SH2 domain wild-type; experiment: as above; details: peptide library: pTyr-Var

Binder	enrichment score
FLQEIYNSNNQ [FGG_Y140_YF]	inactive: 1.14
DSSIRYLQEIF [FGG_Y135_YF]	inactive: 0.687
VEDQFYRVDCF [FHL1_Y208_C209R_YF]	inactive: 0.946
VEDQYYRVDCY [FHL1_Y208_C209R]	inactive: 1.15
PEADKYCLTFA [FGG_Y300_R301C_YF]	inactive: 0.838
AVEDQYYRVDC [FHL1_Y207_C209R]	inactive: 0.748
AVEDQYYCVDC [FHL1_Y207]	inactive: 1.54
KGEDFYYVTCH [FHL1_Y149_C150Y]	inactive: 1.05
KGEDFYCVTCH [FHL1_Y149]	inactive: 3.14
PEADKYCLTYA [FGG_Y300_R301C]	inactive: 1.1
DSSIRYLQEIH [FGG_Y135_Y140H]	inactive: 0.646
HSVLQYVGGVM [FGGY_Y136]	inactive: 0.877
FLQEIHNSNNQ [FGG_Y140_Y140H_YF]	inactive: 1.02
DQNVEYKGTVW [FHL1_Y117]	inactive: 0.868
YQGGTYSKACT [FGG_Y380_S384C]	inactive: 0.685
YLQEIYNSNNQ [FGG_Y140]	inactive: 1.27
DSSIRYLQEIY [FGG_Y135]	inactive: 0.656
VEDQFYCVDCF [FHL1_Y208_YF]	active: 4.27
FQGGTYSKAST [FGG_Y380_YF]	inactive: 0.725

target: SHP2 N-SH2 domain L43F; experiment: as above; details: peptide library: pTyr-Var

Binder	enrichment score
FLQEIYNSNNQ [FGG_Y140_YF]	inactive: 1.02
DSSIRYLQEIF [FGG_Y135_YF]	inactive: 0.746
VEDQFYRVDCF [FHL1_Y208_C209R_YF]	inactive: 0.92
VEDQYYRVDCY [FHL1_Y208_C209R]	inactive: 1.05
PEADKYCLTFA [FGG_Y300_R301C_YF]	inactive: 0.69
AVEDQYYRVDC [FHL1_Y207_C209R]	inactive: 0.591
AVEDQYYCVDC [FHL1_Y207]	inactive: 1.6
KGEDFYYVTCH [FHL1_Y149_C150Y]	inactive: 0.801
KGEDFYCVTCH [FHL1_Y149]	active: 3.21
PEADKYCLTYA [FGG_Y300_R301C]	inactive: 1.01
DSSIRYLQEIH [FGG_Y135_Y140H]	inactive: 0.736
HSVLQYVGGVM [FGGY_Y136]	inactive: 0.961
FLQEIHNSNNQ [FGG_Y140_Y140H_YF]	inactive: 1.01
DQNVEYKGTVW [FHL1_Y117]	inactive: 0.608
YQGGTYSKACT [FGG_Y380_S384C]	inactive: 0.571
YLQEIYNSNNQ [FGG_Y140]	inactive: 1.05
DSSIRYLQEIY [FGG_Y135]	inactive: 0.838
VEDQFYCVDCF [FHL1_Y208_YF]	active: 4.89
FQGGTYSKAST [FGG_Y380_YF]	inactive: 0.509

target: SHP2 N-SH2 domain T42A; experiment: as above; details: peptide library: pTyr-Var

Binder	enrichment score
FLQEIYNSNNQ [FGG_Y140_YF]	inactive: 1.04
DSSIRYLQEIF [FGG_Y135_YF]	inactive: 0.768
VEDQFYRVDCF [FHL1_Y208_C209R_YF]	inactive: 0.717
VEDQYYRVDCY [FHL1_Y208_C209R]	inactive: 0.944
PEADKYCLTFA [FGG_Y300_R301C_YF]	inactive: 0.619
AVEDQYYRVDC [FHL1_Y207_C209R]	inactive: 0.87
AVEDQYYCVDC [FHL1_Y207]	inactive: 1.3
KGEDFYYVTCH [FHL1_Y149_C150Y]	inactive: 0.645
KGEDFYCVTCH [FHL1_Y149]	inactive: 2.02
PEADKYCLTYA [FGG_Y300_R301C]	inactive: 0.954
DSSIRYLQEIH [FGG_Y135_Y140H]	inactive: 0.592
HSVLQYVGGVM [FGGY_Y136]	inactive: 0.818
FLQEIHNSNNQ [FGG_Y140_Y140H_YF]	inactive: 0.931
DQNVEYKGTVW [FHL1_Y117]	inactive: 1.25
YQGGTYSKACT [FGG_Y380_S384C]	inactive: 0.726
YLQEIYNSNNQ [FGG_Y140]	inactive: 0.991
DSSIRYLQEIY [FGG_Y135]	inactive: 0.591
VEDQFYCVDCF [FHL1_Y208_YF]	active: 4.41
FQGGTYSKAST [FGG_Y380_YF]	inactive: 0.597

target: SHP2 N-SH2 domain T52S; experiment: as above; details: peptide library: pTyr-Var

Binder	enrichment score
FLQEIYNSNNQ [FGG_Y140_YF]	inactive: 1.51
DSSIRYLQEIF [FGG_Y135_YF]	inactive: 0.991
VEDQFYRVDCF [FHL1_Y208_C209R_YF]	inactive: 0.845
VEDQYYRVDCY [FHL1_Y208_C209R]	inactive: 0.93
PEADKYCLTFA [FGG_Y300_R301C_YF]	inactive: 0.707
AVEDQYYRVDC [FHL1_Y207_C209R]	inactive: 0.663
AVEDQYYCVDC [FHL1_Y207]	inactive: 1.47
KGEDFYYVTCH [FHL1_Y149_C150Y]	inactive: 0.766
KGEDFYCVTCH [FHL1_Y149]	inactive: 2.85
PEADKYCLTYA [FGG_Y300_R301C]	inactive: 0.809
DSSIRYLQEIH [FGG_Y135_Y140H]	inactive: 0.756
HSVLQYVGGVM [FGGY_Y136]	inactive: 1.2
FLQEIHNSNNQ [FGG_Y140_Y140H_YF]	inactive: 1.19
DQNVEYKGTVW [FHL1_Y117]	inactive: 0.689
YQGGTYSKACT [FGG_Y380_S384C]	inactive: 0.484
YLQEIYNSNNQ [FGG_Y140]	inactive: 1.17
DSSIRYLQEIY [FGG_Y135]	inactive: 0.82
VEDQFYCVDCF [FHL1_Y208_YF]	active: 4.68
FQGGTYSKAST [FGG_Y380_YF]	inactive: 0.627

target: SHP2 N-SH2 domain wild-type; experiment: as above; details: peptide library: pTyr-Var

Binder	enrichment score
FLQEIYNSNNQ [FGG_Y140_YF]	inactive: 1.44
DSSIRYLQEIF [FGG_Y135_YF]	inactive: 0.602
VEDQFYRVDCF [FHL1_Y208_C209R_YF]	inactive: 1.12
VEDQYYRVDCY [FHL1_Y208_C209R]	inactive: 1.08
PEADKYCLTFA [FGG_Y300_R301C_YF]	inactive: 1.44
AVEDQYYRVDC [FHL1_Y207_C209R]	inactive: 0.874
AVEDQYYCVDC [FHL1_Y207]	inactive: 1.35
KGEDFYYVTCH [FHL1_Y149_C150Y]	inactive: 1.33
KGEDFYCVTCH [FHL1_Y149]	inactive: 2.85
PEADKYCLTYA [FGG_Y300_R301C]	inactive: 1.38
DSSIRYLQEIH [FGG_Y135_Y140H]	inactive: 0.838
HSVLQYVGGVM [FGGY_Y136]	inactive: 0.695
FLQEIHNSNNQ [FGG_Y140_Y140H_YF]	inactive: 0.844
DQNVEYKGTVW [FHL1_Y117]	inactive: 0.728
YQGGTYSKACT [FGG_Y380_S384C]	inactive: 0.534
YLQEIYNSNNQ [FGG_Y140]	inactive: 1.28
DSSIRYLQEIY [FGG_Y135]	inactive: 0.772
VEDQFYCVDCF [FHL1_Y208_YF]	active: 4.68
FQGGTYSKAST [FGG_Y380_YF]	inactive: 0.764
